# Test results published in PubChem BioAssay AID1745853 (National Center for Advancing Translational Sciences (NCATS), 2022).
# This is one part of the list. Shown are side measurements of this screen, not its main read-out; they come without a call.
# Experiments:
# Experiment in all cases: Primary Screen for Target Class Profiling of Small Molecule Inhibitors of Methyltransferases
# [1] = molecular target: Glycine N-methyltransferase (Homo sapiens) (UniProt Q14749); settings: purified enzyme, MTase-Glo SAH luminescence; measured here: GNMT inhibition; at 40 µM; stronger effect = lower value
# Summary of the method: (§1)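 Each enzyme was reacted with SAM and its substrate, with compounds tested once at 40 uM; SAH formed was read by MTase-Glo luminescence.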
# [2] = molecular target: Guanidinoacetate N-methyltransferase (Homo sapiens) (UniProt Q14353); settings: purified enzyme, MTase-Glo SAH luminescence; measured here: GAMT inhibition; at 40 µM; stronger effect = lower value
# Summary of the method: as §1
# [3] = molecular target: Histamine N-methyltransferase (Homo sapiens) (UniProt P50135); settings: purified enzyme, MTase-Glo SAH luminescence; measured here: HNMT inhibition; at 40 µM; stronger effect = lower value
# Summary of the method: as §1
# [4] = molecular target: Nicotinamide N-methyltransferase (Homo sapiens) (UniProt P40261); settings: purified enzyme, MTase-Glo SAH luminescence; measured here: NNMT inhibition; at 40 µM; stronger effect = lower value
# Summary of the method: as §1
# [5] = molecular target: Phenylethanolamine N-methyltransferase (Homo sapiens) (UniProt P11086); settings: purified enzyme, MTase-Glo SAH luminescence; measured here: PNMT inhibition; at 40 µM; stronger effect = lower value
# Summary of the method: as §1
# % is set by controls: 0 for no effect and ±100 for the full control effect.
Compound,"activity change, negative = inhibition [1]","activity change, negative = inhibition [2]","activity change, negative = inhibition [3]","activity change, negative = inhibition [4]","activity change, negative = inhibition [5]"
CC[C@H](C)[C@H](N)C(=O)N1CCC(Cn2cc(C3CCCC3)nn2)CC1,-1.58%,0.297%,-0.433%,-8.93%,-3.56%
CC(C)Cc1cc(CN2CCC(CO)(CN3CCCC3)CC2)[nH]n1,-1.48%,-7.2%,-6.77%,-3.33%,-2.91%
Cc1ccc(S(=O)(=O)n2ccc(-c3c(-c4ccc(Cl)cc4)noc3C)n2)cc1,-10.2%,-8.8%,-0.129%,-24.7%,-4.29%
CCCC1c2cccn2CCN1C(=O)Nc1cccc(C)c1C (stereo not given),1.66%,1.15%,-16.5%,0.858%,4.4%
C[C@@H](NCCc1ccc(O)cc1)[C@@H](O)c1ccc(O)cc1,8.7%,6.04%,-36%,-10%,-6.08%
COC(=O)c1ncn2c1C(=O)N(c1ccc(OC)c(OC)c1)C(C)(C(=O)NC1CCCC1)C2 (stereo not given),3.91%,4.34%,-4.27%,1.66%,-0.407%
CC1(C(=O)NC2CCCCCCC2)Cn2c(cc3occc32)C(=O)N1Cc1ccccc1 (stereo not given),0.537%,2.21%,8.17%,-10.1%,2.35%
CNC1CCC(N(Cc2cccc(-c3ccncc3)c2)C(=O)c2sc3c(F)ccc(F)c3c2Cl)CC1 (stereo not given),-6.45%,6.08%,-20.2%,-79.8%,-3.3%
CC(C)c1cc2c(c(O)c1O)[C@@]13CCCC(C)(C)C1[C@@H](O)[C@@H]2OC3=O (stereo not given in full),-1.07%,4.17%,7.54%,-11.2%,2.61%
CC(C)OCCCNC(=O)C1(C)Cn2c(cc3ccccc32)C(=O)N1Cc1ccccc1Cl (stereo not given),6.85%,0.995%,7.86%,0.103%,4.9%
CC1(C(=O)NC2CCCCC2)Cn2c(cc3ccccc32)C(=O)N1Cc1ccccc1 (stereo not given),-9.8%,-1.71%,-5.58%,-14.1%,-4.71%
CC(C)OCCCn1c(=O)c2ccccc2n2c(-c3cc(Cl)ccc3O)nnc12,-7.9%,5.87%,-2.08%,4.6%,-6.18%
CN1C[C@H]2CN(C(=O)c3cccnc3)CCN2C1=O,-0.332%,0.016%,1.3%,1.06%,4.84%
CCCN1C(=O)c2c(C(=O)NCCc3cccs3)ncn2CC1(C)C(=O)NC1CCCC1 (stereo not given),1.51%,0.4%,3.41%,3.5%,4.58%
CCCn1c(=O)c2ccccc2n2c(=O)n(CC(=O)Nc3ccc(F)cc3)nc12,1.63%,0%,7.14%,-1.73%,3.31%
CC(C)(C)c1cc2n(n1)CC(C)(C(=O)NC1CCCCC1)N(Cc1ccccc1F)C2=O (stereo not given),-4.08%,1.7%,0.682%,1.89%,-2.16%
CCOc1ccc(CCNC(=O)Cn2ccc3cc(S(=O)(=O)N4CCC(C)CC4)ccc32)cc1,6.88%,0%,6.03%,1.76%,1.24%
CC1(C(=O)NC2CCCCC2)Cn2c(cc3sccc32)C(=O)N1CCCN1CCOCC1 (stereo not given),4.05%,0.748%,4.13%,8.67%,1.61%
CNC(=O)c1cc(Oc2ccc(NC(=O)Nc3ccc(Cl)c(C(F)(F)F)c3)cc2)ccn1,-5.72%,-14.4%,3.19%,-36%,-5.09%

Compound,"activity change, negative = inhibition [1]","activity change, negative = inhibition [2]","activity change, negative = inhibition [3]","activity change, negative = inhibition [4]","activity change, negative = inhibition [5]"
COc1cc2nc(C3CC3)nc(N3CCN(c4ccccc4OC)CC3)c2cc1OC,-9.15%,3.7%,-13.3%,-30.5%,-4.83%
CNC(=O)c1ccccc1Nc1cc(Nc2ccc(N3CCOCC3)cc2OC)ncc1C(F)(F)F,-12.8%,-12%,-3.77%,-32.6%,-25.8%
COc1cccc(-c2cc(-c3cccs3)nc3c(C)noc23)c1,-4.27%,-2.29%,-1.76%,-1.75%,-5.71%
C=C1CCC2C(C)(C(=O)OC)CCCC2(C)C1CCC(C)CC(=O)O (stereo not given),0%,-0.68%,0.996%,-25.6%,-2%
CCc1cccc(N2C(=O)Cn3cccc3C2C(=O)NC2CCC(C)CC2)c1 (stereo not given),-0.445%,0%,1.2%,7.39%,-1.88%
O=C(Cn1ccc2cc(S(=O)(=O)N3CCCC3)ccc21)NCCc1ccccc1Cl,-0.422%,2.6%,0.254%,-6.83%,-19.4%
O=C(CCc1nnc2n(Cc3ccccc3Cl)c(=O)c3ccccc3n12)NCCCN1CCOCC1,-6.99%,0.384%,-2.42%,13.4%,3.58%
O=C(Nc1cccc(C(=O)Nc2ccc(S(=O)(=O)O)c3cc(S(=O)(=O)O)cc(S(=O)(=O)O)c23)c1)Nc1cccc(C(=O)Nc2ccc(S(=O)(=O)O)c3cc(S(=O)(=O)O)cc(S(=O)(=O)O)c23)c1,-8.03%,15.5%,14%,-3.48%,0.629%
COc1cc2c(c(OC)c1CC=C(C)C)C[C@H](c1ccc(O)c(CC=C(C)C)c1O)CO2,-3.38%,-20.6%,-0.456%,-29.7%,-3.26%
Cc1ccc(S(=O)(=O)Cc2nc(-c3ccc(C(=O)NCc4cccnc4)cc3)oc2C)cc1,-18.2%,-7.5%,-14.2%,-26.6%,-21.2%
O=C(c1cncs1)N1CCc2c(cc(-c3cccc(F)c3)c(=O)n2CCN2CCCCC2)C1,-5.65%,-8.21%,-5.66%,-8.16%,3.9%
O=C(N[C@H]1CCN2C(=O)c3ccccc3NC(=O)[C@H]12)c1cccc(F)c1,-3.61%,-4.38%,-2.98%,-9.38%,-6.65%
CC/C(=C(\c1ccc(O)cc1)c1ccc(OCCNC)cc1)c1ccccc1,3.11%,5.35%,-7.78%,-21%,4.62%
CS(=O)(=O)N1CCCOCCNC(=O)[C@@H]2CCC[C@@H]21,-0.753%,-0.112%,0.253%,1.66%,-0.658%
CN1CCN(Cc2nc(C3(O)CCN(Cc4ccccc4C(F)(F)F)CC3)cs2)CC1,-1.66%,-2.89%,-4.72%,-4.02%,-16.2%
CC(=O)N1CCN(C(=O)c2cnc(N)nc2-c2ccccc2)CC(O)C1 (stereo not given),-0.341%,1.66%,1.4%,0.144%,8.98%
O=C(Nc1cc(-c2ccccc2)nn1-c1ccccc1F)c1ccc([N+](=O)[O-])cc1,5.39%,-0.545%,10.4%,-15.2%,-1.27%
CCN(CC)CCNC(=O)c1cc2n(n1)CC(C)(C(=O)NC1CCCCC1)N(C)C2=O (stereo not given),7.6%,1.29%,7.56%,12.5%,7.17%
COc1ccc(C)cc1NC(=O)C1CCCN(c2cn[nH]c(=O)c2)C1 (stereo not given),-9.87%,-9.74%,-5.25%,-9.85%,-8.78%
